# Some of the results follow.
# B1: FimA-N1 (Actinomyces oris) (protein)
# chain: MHHHHHHSSGVDLGTENLYFQSNATETPNYGNIKTDATGSLVIHKHLTGGGKDIGTPTGTAQNADDKGPAVEGVVFTAYPITDINLKDPAGWDTISNLSRTGVPDSACANPAAPTLGAHQFGTPKVSPATTKEGLATITEMPVQAYLVCETTTPGDIVQKAKPFVVTIPHPNTAAGADGQWIYDVNVYPKNEAIDVDKTIQAQK
# Legend:
# Test in all cases: glycan array binding signal (z-score within array); higher = stronger binding
# Conditions in all cases: glycan notation: IUPAC condensed, linker removed
# [1] = target: Gal(b1-3)GlcNAc(b1-2)Man(a1-3)[Gal(b1-3)GlcNAc(b1-2)Man(a1-6)]Man(b1-4)GlcNAc(b1-4)[Fuc(a1-6)]GlcNAc
# Method in brief: (§1)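 Negative Z-scores can be read as non-binding. The Z-score is calculated within each array and then averaged across arrays of one protein sequence at different concentrations or buffers and across linkers. Arrays, 3228 in all, were curated from the Consortium for Functional Glycomics database and kept only where the protein sequence was available.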
# [2] = target: Gal(b1-3)GlcNAc(b1-2)Man(a1-3)[GlcNAc(b1-4)][Gal(b1-3)GlcNAc(b1-2)Man(a1-6)]Man(b1-4)GlcNAc(b1-4)GlcNAc
# Method in brief: as §1
# [3] = target: Gal(b1-3)GlcNAc(b1-2)[Gal(b1-3)GlcNAc(b1-6)]Man(a1-6)[Gal(b1-3)GlcNAc(b1-2)Man(a1-3)]Man(b1-4)GlcNAc(b1-4)GlcNAc
# Method in brief: as §1
# [4] = target: Gal(b1-3)GlcNAc(b1-3)Gal(b1-3)GlcNAc
# Method in brief: as §1
# [5] = target: Gal(b1-3)GlcNAc(b1-3)Gal(b1-4)Glc
# Method in brief: as §1
# [6] = target: Gal(b1-3)GlcNAc(b1-3)Gal(b1-4)GlcNAc
# Method in brief: as §1
# [7] = target: Gal(b1-3)GlcNAc(b1-3)Gal(b1-4)GlcNAc(b1-2)Man(a1-3)[Gal(b1-3)GlcNAc(b1-3)Gal(b1-4)GlcNAc(b1-2)Man(a1-6)]Man(b1-4)GlcNAc(b1-4)GlcNAc
# Method in brief: as §1
# [8] = target: Gal(b1-3)GlcNAc(b1-3)Gal(b1-4)GlcNAc(b1-2)[Gal(b1-3)GlcNAc(b1-3)Gal(b1-4)GlcNAc(b1-6)]Man(a1-6)[Gal(b1-3)GlcNAc(b1-3)Gal(b1-4)GlcNAc(b1-2)Man(a1-3)]Man(b1-4)GlcNAc(b1-4)[Fuc(a1-6)]GlcNAc
# Method in brief: as §1
# [9] = target: Gal(b1-3)GlcNAc(b1-3)Gal(b1-4)GlcNAc(b1-3)Gal(b1-4)GlcNAc(b1-2)[Gal(b1-3)GlcNAc(b1-3)Gal(b1-4)GlcNAc(b1-3)Gal(b1-4)GlcNAc(b1-6)]Man(a1-6)[Gal(b1-3)GlcNAc(b1-3)Gal(b1-4)GlcNAc(b1-3)Gal(b1-4)GlcNAc(b1-2)Man(a1-3)]Man(b1-4)GlcNAc(b1-4)[Fuc(a1-6)]GlcNAc
# Method in brief: as §1
# [10] = target: Gal(b1-3)GlcNAc(b1-3)Gal(b1-4)GlcNAc(b1-6)[Gal(b1-3)GlcNAc(b1-3)]Gal(b1-4)Glc
# Method in brief: as §1
# [11] = target: Gal(b1-3)GlcNAc(b1-3)Gal(b1-4)[Fuc(a1-3)]GlcNAc
# Method in brief: as §1
# [12] = target: Gal(b1-3)GlcNAc(b1-3)Gal(b1-4)[Fuc(a1-3)]GlcNAc(b1-6)[Gal(b1-3)GlcNAc(b1-3)]Gal(b1-4)Glc
# Method in brief: as §1
# [13] = target: Gal(b1-3)GlcNAc(b1-3)GalNAc
# Method in brief: as §1
# [14] = target: Gal(b1-3)GlcNAc(b1-6)Gal(b1-4)GlcNAc
# Method in brief: as §1
# [15] = target: Gal(b1-3)GlcNAc(b1-6)GalNAc
# Method in brief: as §1
# [16] = target: Gal(b1-3)GlcNAc(b1-6)[Gal(b1-3)]GalNAc
# Method in brief: as §1
# Gal(b1-3)GlcNAc6S = target: Gal(b1-3)GlcNAc6S
# Method in brief: as §1
# [17] = target: Gal(b1-3)[Fuc(a1-4)]GlcNAc
# Method in brief: as §1
# [18] = target: Gal(b1-3)[Fuc(a1-4)]GlcNAc(b1-2)Man
# Method in brief: as §1
# [19] = target: Gal(b1-3)[Fuc(a1-4)]GlcNAc(b1-2)Man(a1-3)[Gal(b1-3)[Fuc(a1-4)]GlcNAc(b1-2)Man(a1-6)]Man(b1-4)GlcNAc(b1-4)[Fuc(a1-6)]GlcNAc
# Method in brief: as §1
# [20] = target: Gal(b1-3)[Fuc(a1-4)]GlcNAc(b1-3)Gal(b1-3)[Fuc(a1-4)]GlcNAc
# Method in brief: as §1
# [21] = target: Gal(b1-3)[Fuc(a1-4)]GlcNAc(b1-3)Gal(b1-4)[Fuc(a1-3)]GlcNAc
# Method in brief: as §1
binder,measurement,setting,value
B1,glycan array binding signal (z-score),[1],-0.504
same,glycan array binding signal (z-score),[2],0.813
same,glycan array binding signal (z-score),[3],3.13
same,glycan array binding signal (z-score),[4],-0.03
same,glycan array binding signal (z-score),[5],-0.392
same,glycan array binding signal (z-score),[6],-0.233
same,glycan array binding signal (z-score),[7],-0.401
same,glycan array binding signal (z-score),[8],-0.054
same,glycan array binding signal (z-score),[9],-0.226
same,glycan array binding signal (z-score),[10],-0.142
same,glycan array binding signal (z-score),[11],-0.121
same,glycan array binding signal (z-score),[12],-0.133
same,glycan array binding signal (z-score),[13],-0.102
same,glycan array binding signal (z-score),[14],-0.385
same,glycan array binding signal (z-score),[15],-0.346
same,glycan array binding signal (z-score),[16],-0.153
same,glycan array binding signal (z-score),Gal(b1-3)GlcNAc6S,0.102
same,glycan array binding signal (z-score),[17],-0.166
same,glycan array binding signal (z-score),[18],-0.442
same,glycan array binding signal (z-score),[19],0.322
same,glycan array binding signal (z-score),[20],-0.597
same,glycan array binding signal (z-score),[21],-0.268
